Test results reported in the supplement of paper PMC9927326.
MIC of clinical C. albicans isolates, CLSI broth microdilution (ranges and time not stated); higher = less susceptible. Call: susceptible or wild type [S] / resistant or non-wild type [R] by CLSI breakpoints or epidemiological cut-offs; intermediate and dose-dependent carry no call here (the paper groups them with resistant). '<=' and '>=' mark each drug's lowest and highest value, inferred; the source prints them plain. Isolates are numbered anew.

Assays:
Test in all cases: CLSI broth microdilution.
[1] = compound: CCCCCOc1ccc(-c2cc(-c3ccc(C(=O)N[C@H]4C[C@@H](O)[C@@H](O)NC(=O)[C@@H]5[C@@H](O)[C@@H](C)CN5C(=O)[C@H]([C@H](O)CC(N)=O)NC(=O)[C@H]([C@H](O)[C@@H](O)c5ccc(O)c(OS(=O)(=O)O)c5)NC(=O)[C@@H]5C[C@@H](O)CN5C(=O)[C@H]([C@@H](C)O)NC4=O)cc3)no2)cc1 [micafungin]
[2] = compound: OC(Cn1cncn1)(Cn1cncn1)c1ccc(F)cc1F [fluconazole]
[3] = compound: CCCCCOc1ccc(-c2ccc(-c3ccc(C(=O)N[C@H]4C[C@@H](O)[C@@H](O)NC(=O)[C@@H]5[C@@H](O)[C@@H](C)CN5C(=O)[C@H]([C@@H](C)O)NC(=O)[C@H]([C@H](O)[C@@H](O)c5ccc(O)cc5)NC(=O)[C@@H]5C[C@@H](O)CN5C(=O)[C@H]([C@@H](C)O)NC4=O)cc3)cc2)cc1 [anidulafungin]
[4] = compound: Nc1[nH]c(=O)ncc1F [flucytosine]
[5] = compound: CCC(C)n1ncn(-c2ccc(N3CCN(c4ccc(OCC5COC(Cn6cncn6)(c6ccc(Cl)cc6Cl)O5)cc4)CC3)cc2)c1=O [itraconazole]
[6] = compound: CC[C@H](C)C[C@H](C)CCCCCCCCC(=O)N[C@H]1C[C@@H](O)[C@@H](NCCN)NC(=O)[C@@H]2[C@@H](O)CCN2C(=O)[C@H]([C@H](O)CCN)NC(=O)[C@H]([C@H](O)[C@@H](O)c2ccc(O)cc2)NC(=O)[C@@H]2C[C@@H](O)CN2C(=O)[C@H]([C@@H](C)O)NC1=O [caspofungin]
[7] = compound: C[C@@H]1[C@H](O)[C@@H](C)/C=C/C=C/C=C/C=C/C=C/C=C/C=C/[C@H](O[C@@H]2O[C@H](C)[C@@H](O)[C@H](N)[C@@H]2O)C[C@@H]2O[C@](O)(C[C@@H](O)C[C@@H](O)[C@H](O)CC[C@@H](O)C[C@@H](O)CC(=O)O[C@H]1C)C[C@H](O)[C@H]2C(=O)O [amphotericin B]
[8] = compound: CC[C@@H]([C@H](C)O)n1ncn(-c2ccc(N3CCN(c4ccc(OC[C@@H]5CO[C@@](Cn6cncn6)(c6ccc(F)cc6F)C5)cc4)CC3)cc2)c1=O [posaconazole]
[9] = compound: C[C@@H](c1ncncc1F)[C@](O)(Cn1cncn1)c1ccc(F)cc1F [voriconazole]

Test System | MIC [1] | MIC [2] | MIC [3] | MIC [4] | MIC [5] | MIC [6] | MIC [7] | MIC [8] | MIC [9]
Candida albicans isolate 341 (Erg11p: WT, Fur1p: WT, Tac1p: I558V,A377V,F189S,N174D,M170I,K87N) | ≤ 0.008 mg/L [S] | 0.25 mg/L [S] | ≤ 0.015 mg/L [S] | ≤ 0.06 mg/L [S] | ≤ 0.015 mg/L [S] | 0.015 mg/L [S] | 0.5 mg/L [S] | 0.015 mg/L [S] | ≤ 0.008 mg/L [S]
Candida albicans isolate 153 (Erg11p: G465S,Y132H, Fur1p: R101C, Tac1p: WT) | 0.015 mg/L [S] | 4 mg/L | ≤ 0.015 mg/L [S] | 0.12 mg/L [S] | 0.03 mg/L [S] | 0.015 mg/L [S] | 0.25 mg/L [S] | 0.015 mg/L [S] | 0.25 mg/L
Candida albicans isolate 227 (Erg11p: E266D,D153E,G129A, Fur1p: WT, Tac1p: N896S,R869Q,L695F,I558V,A377V,E371K,F189S,M170V,L131I) | 0.015 mg/L [S] | 1 mg/L [S] | ≤ 0.015 mg/L [S] | ≤ 0.06 mg/L [S] | 0.03 mg/L [S] | 0.03 mg/L [S] | 0.5 mg/L [S] | 0.03 mg/L [S] | ≤ 0.008 mg/L [S]
Candida albicans isolate 301 (Erg11p: V437I,E266D, Fur1p: WT, Tac1p: N896S,I895T,M170V) | 0.015 mg/L [S] | 0.5 mg/L [S] | 0.06 mg/L [S] | ≤ 0.06 mg/L [S] | 0.06 mg/L [S] | 0.03 mg/L [S] | 0.25 mg/L [S] | 0.03 mg/L [S] | ≤ 0.008 mg/L [S]
Candida albicans isolate 12 (Erg11p: WT, Fur1p: WT, Tac1p: N896S) | 0.015 mg/L [S] | 0.25 mg/L [S] | 0.06 mg/L [S] | ≤ 0.06 mg/L [S] | 0.03 mg/L [S] | 0.03 mg/L [S] | 0.25 mg/L [S] | 0.015 mg/L [S] | ≤ 0.008 mg/L [S]
Candida albicans isolate 273 (Erg11p: E266D, Fur1p: WT, Tac1p: I558V,A377V,F189S,N174D,M170I,K87N) | 0.015 mg/L [S] | 0.5 mg/L [S] | ≤ 0.015 mg/L [S] | ≤ 0.06 mg/L [S] | 0.03 mg/L [S] | 0.12 mg/L [S] | 0.5 mg/L [S] | 0.015 mg/L [S] | ≤ 0.008 mg/L [S]
Candida albicans isolate 135 (Erg11p: V437I,E266D, Fur1p: WT, Tac1p: L695F,I558V,A377V,F189S,N174D,M170I,L131I,K87N) | 0.015 mg/L [S] | 0.5 mg/L [S] | ≤ 0.015 mg/L [S] | ≤ 0.06 mg/L [S] | 0.03 mg/L [S] | 0.03 mg/L [S] | 0.5 mg/L [S] | 0.015 mg/L [S] | 0.015 mg/L [S]
Candida albicans isolate 13 (Erg11p: WT, Fur1p: WT, Tac1p: N896S) | ≤ 0.008 mg/L [S] | 0.25 mg/L [S] | 0.03 mg/L [S] | ≤ 0.06 mg/L [S] | 0.03 mg/L [S] | 0.03 mg/L [S] | 0.5 mg/L [S] | 0.015 mg/L [S] | ≤ 0.008 mg/L [S]
Candida albicans isolate 325 (Erg11p: G472R, Fur1p: R101C, Tac1p: WT) | 0.015 mg/L [S] | ≤ 0.12 mg/L [S] | ≤ 0.015 mg/L [S] | ≤ 0.06 mg/L [S] | ≤ 0.015 mg/L [S] | 0.03 mg/L [S] | 0.25 mg/L [S] | 0.015 mg/L [S] | ≤ 0.008 mg/L [S]
Candida albicans isolate 42 (Erg11p: WT, Fur1p: WT, Tac1p: N896S) | 0.015 mg/L [S] | 0.5 mg/L [S] | ≤ 0.015 mg/L [S] | ≤ 0.06 mg/L [S] | 0.03 mg/L [S] | 0.03 mg/L [S] | 0.25 mg/L [S] | 0.03 mg/L [S] | ≤ 0.008 mg/L [S]
Candida albicans isolate 255 (Erg11p: E266D, Fur1p: WT, Tac1p: N896S,Q775*,I558V,A377V,K87N) | ≤ 0.008 mg/L [S] | 0.5 mg/L [S] | 0.06 mg/L [S] | ≤ 0.06 mg/L [S] | 0.06 mg/L [S] | 0.03 mg/L [S] | 0.25 mg/L [S] | 0.03 mg/L [S] | ≤ 0.008 mg/L [S]
Candida albicans isolate 101 (Erg11p: E266D, Fur1p: WT, Tac1p: N896S,I558V,P530L,A377V,F189S,N174D,M170I,K87N) | 0.015 mg/L [S] | 0.5 mg/L [S] | ≤ 0.015 mg/L [S] | ≤ 0.06 mg/L [S] | ≤ 0.015 mg/L [S] | 0.03 mg/L [S] | 0.25 mg/L [S] | 0.015 mg/L [S] | ≤ 0.008 mg/L [S]
Candida albicans isolate 224 (Erg11p: V437I,E266D, Fur1p: WT, Tac1p: S937L,I895T,L695F,I558V,F189S,L131I) | ≤ 0.008 mg/L [S] | 0.25 mg/L [S] | ≤ 0.015 mg/L [S] | ≤ 0.06 mg/L [S] | ≤ 0.015 mg/L [S] | 0.03 mg/L [S] | 0.25 mg/L [S] | 0.015 mg/L [S] | ≤ 0.008 mg/L [S]
Candida albicans isolate 344 (Erg11p: K342R,E266D, Fur1p: WT, Tac1p: I558V,A377V,F189S,N174D,M170I,K87N) | 0.015 mg/L [S] | 0.25 mg/L [S] | 0.06 mg/L [S] | ≤ 0.06 mg/L [S] | 0.03 mg/L [S] | 0.03 mg/L [S] | 0.25 mg/L [S] | 0.015 mg/L [S] | ≤ 0.008 mg/L [S]
Candida albicans isolate 136 (Erg11p: WT, Fur1p: WT, Tac1p: I895T) | 0.015 mg/L [S] | 0.5 mg/L [S] | ≤ 0.015 mg/L [S] | ≤ 0.06 mg/L [S] | 0.06 mg/L [S] | 0.015 mg/L [S] | 1 mg/L [S] | 0.06 mg/L [S] | 0.015 mg/L [S]
Candida albicans isolate 2 (Erg11p: V437I,E266D, Fur1p: WT, Tac1p: S937L,I895T,L695F,I558V,F189S,L131I) | ≤ 0.008 mg/L [S] | 0.25 mg/L [S] | 0.03 mg/L [S] | ≤ 0.06 mg/L [S] | 0.03 mg/L [S] | 0.03 mg/L [S] | 0.25 mg/L [S] | 0.015 mg/L [S] | ≤ 0.008 mg/L [S]
